Measured values: the supplement of paper PMC11417369
This is one part of the list.

What follows are sequences tested on PfSIP2 AP2 domain 1 (GST-tagged) (assay: gcPBM binding intensity (ln(normalized median fluorescence intensity)); higher = stronger DNA binding).
Outline: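 After 1 h on an Agilent 4 × 180k array of primer-extended double-stranded 36-bp intergenic genomic probes and negative controls, bound GST-tagged P. falciparum DNA-binding domains were detected with Alexa488 anti-GST antibody and scanned at 488 nm. The domains had been expressed in E. coli, and binding took place in 1× PBS with 1% milk, 0.2 mg/ml BSA, 0.5% salmon testes DNA and 0.03% Triton X-100. Binding intensity is the highest Masliner-normalised natural-log median intensity across replicate spots of either probe orientation.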

Row | Sequence | gcPBM binding intensity (ln)
1 | AAAAAAAAAAAAAAAACACACATACATACATACATA [CACACA_site6125] | 7.53
2 | TTTTTTTTTTTTTTTGCACACACCATATTTATAGAA [CACACA_site3310] | 7.75
3 | AGAAAAGTGATATATACACACTTATATTTATTTATA [CACACA_site7350] | 6.79
4 | TTTTATAAGGTGAAAAGTACATATAACTTATTTTAC [XGTACX_site5572] | 6.99
5 | TTAAATGATGTAAACACACACATATACATTATTATA [CACACA_site3162] | 6.9
6 | TATTGTCTATAATAAACACACAATATTAAAAATATA [CACACA_site6624] | 6.76
7 | ATCTTTCCTATTTGTAGTACAAAAAAAAAAAAAAAA [XGTACX_site5485] | 7.4
8 | ACGTGTGATTATAATTGTACTTTAATGTAAGAATGA [XGTACX_site1109] | 7.21
9 | ATATATATATATATATGTACTTATAATAATATTCAA [XGTACX_site2593] | 8.88
10 | TTATTTTATTTTTTTGTGCACATATATATTTATAAA [GTGCAC_site9615] | 9.43
11 | AATTTTATTTAATTTTTTTGGGAAATGATAAAATTT [CACACA_negctrl_site934] | 6.79
12 | ACTTATATATTATGTTGTCCGTCCATTCTCTTTATC [XGTACX_site3769] | 7.21
13 | TTTTCATTCAATTATATTTATATATATATATATATA [GTGCAC_negctrl_site538] | 9.28
14 | TACATGTATAAATAAGCACACATGTGGATATGTACA [CACACA_site93] | 6.98
15 | CAAAATATTTTTATAACACACATATATATAATGTGC [CACACA_site4767] | 6.99
16 | TACACAAGGGGAAAAATATATATATATATATATATA [TGCATGCA_negctrl_site217] | 9.53
17 | TAAAAAATTTTATATTCACACACATATATATATATA [CACACA_site8109] | 9.41
18 | TAAAAGTATATATATACACACATAAATATATATGTA [CACACA_site663] | 6.99
19 | AAAATTTAAAGCATGACACACAATTATATTATGTGC [CACACA_site3435] | 6.68
20 | TTGTGAAATAAAATTTGTACACACATATATATATAT [XGTACX_site1078] | 9.53
21 | TTTTTTTTGGAATTCACACAAATATAACATGGGTAT [CACACA_site5185] | 7.15
22 | TTCTTTTCTTTAGTAGAATGTAAAAAATATAATCTT [XGTACX_negctrl_site290] | 7.01

Row | Sequence | gcPBM binding intensity (ln)
23 | TATCTCTTCATATTGTGTACATATTTTTATTTATTG [XGTACX_site4038] | 7.36
24 | AATTACTACATAAATACATGCATAATTATATATATA [TGCATGCA_site783] | 8.09
25 | AACACTTCTTATTTATGTACTTAATTCCCAACGGAA [XGTACX_site4818] | 7.2
26 | ATAAAATATAAAAATTGTACGATAATAATAGTAGGA [XGTACX_site8951] | 7.23
27 | AAATATATATATATATATATATATATATATATATAT [CACACA_negctrl_site677] | 9.56
28 | AAATGAATAAATAAGACACACACGAAAATAAGTAAA [CACACA_site71] | 7.22
29 | TGATCAGATAGACACACACACAAAAAAAAAAAAAAA [CACACA_site7805] | 7.1
30 | TTATAAAATTACTTGGTGCATTAGAATATTTCAATA | 10.1
31 | TGTTTATTTTTAAAAAGTACATATTTAAAAAACTTC [XGTACX_site271] | 7.14
32 | TTTTCTAAATAAATAGTGCATTTATTATATATACAT [GTGCAC_site9766] | 9.15
33 | CAAAAGAAGGTAAACACACACACACGCATACAAAAA [CACACA_site7724] | 7.18
34 | CAAAACCTTATATGTACACACATATACATCACCCTT [CACACA_site3170] | 6.92
35 | ATAGAATAAAACTATACACACCTATATTTAAACATA [CACACA_site5106] | 7.02
36 | ATTTCTCTATCGTAATGTACATAAAAAATGAAAAAA [XGTACX_site1201] | 7.54
37 | TTGTATTATATTGTATTATGTTTAAATGAAAAAAAA [CACACA_negctrl_site662] | 7.09
38 | TATTGTTACTTTATATGTACTAATTAAACATATACA [XGTACX_site6363] | 7.24
39 | AAAAATACCTTATATATACACACTATGTTTTTCTTT [CACACA_site1192] | 6.89
40 | AAATATTAGTAACACAGACACACAAAAAAAAAAAAA [CACACA_site2175] | 6.9
41 | AAAAAAAAAAAAAAAAGTACACAAATTTTAAAAATT [XGTACX_site3006] | 7.58
42 | ATATTAAAATGAAAATATAAAAAAAAAAAAAAAAAA [CACACA_negctrl_site1559] | 6.89
43 | CAATCAAATAGACACACACACACCTAAACATAAAAG [CACACA_site7322] | 7
44 | TATTAATAAAAGCATTGTACAGTAATAAATAAATAA [XGTACX_site2924] | 7
